No constants are given. Whether binding was seen depends on the method and setting. Some entries that bind do so weakly or less than the wild type. For some assays here: Tags and fused reporters may be left off the sequences shown.
Key:
[1] = target: BD-Rfa1-FLAB (lexA DNA binding domain fused to Rfa1 truncated at tryptophan 413; plasmid pGP1) (S. cerevisiae) (UniProt P22336); assay: two-hybrid; library screen: DupLEX-A system, bait BD-Rfa1-FLAB (pGP1) in EGY48 (6xOlexA-LEU2) with pSH18-34 (8xOlexA-lacZ), S. cerevisiae genomic DNA prey library in pJG4-5; selection by growth on SG-His-Trp-Ura-Leu at 30°C, retest on SD-HTUL and SG-HTUL; prey inserts sequenced
[2] = target: BD-Rfa1, full-length (lexA DNA binding domain fused to Rfa1; plasmids pSJH101 and pPM07) (S. cerevisiae) (UniProt P22336); assay: two-hybrid; liquid beta-galactosidase (ONPG) assay in EGY188 with pSH18-34; pGAL-lexA bait plasmids and B42 prey induced with 2% galactose for 5 hr at 30°C; Miller units normalised to BD-Rfa1 (pPM07) with AD-Rad24-ΔN (pGP2)
[3] = target: BD-Rfa1, full-length (lexA DNA binding domain fused to Rfa1; plasmids pSJH101 and pPM07) (S. cerevisiae) (UniProt P22336); assay: two-hybrid; directed test by replica plating: EGY48 (6xOlexA-LEU2) with lexA bait, B42 prey and pSH18-34 (8xOlexA-lacZ); growth on SG-HTUL and/or blue colour on SG-HTU+X-gal; also done in EGY48 strains with rfa2-Dx or rfa2-Ax in place of RFA2 (Fig. 2E)

The chains behind the UniProt entries cited, without tags or fusion partners. Where a name states a change or a piece, a line headed by the entry shows the natural chain unless it says otherwise. A line that says so, or that is headed by a name, gives the form on record, which may keep a tag or linker. Residues count along the entry.
UniProt P22336: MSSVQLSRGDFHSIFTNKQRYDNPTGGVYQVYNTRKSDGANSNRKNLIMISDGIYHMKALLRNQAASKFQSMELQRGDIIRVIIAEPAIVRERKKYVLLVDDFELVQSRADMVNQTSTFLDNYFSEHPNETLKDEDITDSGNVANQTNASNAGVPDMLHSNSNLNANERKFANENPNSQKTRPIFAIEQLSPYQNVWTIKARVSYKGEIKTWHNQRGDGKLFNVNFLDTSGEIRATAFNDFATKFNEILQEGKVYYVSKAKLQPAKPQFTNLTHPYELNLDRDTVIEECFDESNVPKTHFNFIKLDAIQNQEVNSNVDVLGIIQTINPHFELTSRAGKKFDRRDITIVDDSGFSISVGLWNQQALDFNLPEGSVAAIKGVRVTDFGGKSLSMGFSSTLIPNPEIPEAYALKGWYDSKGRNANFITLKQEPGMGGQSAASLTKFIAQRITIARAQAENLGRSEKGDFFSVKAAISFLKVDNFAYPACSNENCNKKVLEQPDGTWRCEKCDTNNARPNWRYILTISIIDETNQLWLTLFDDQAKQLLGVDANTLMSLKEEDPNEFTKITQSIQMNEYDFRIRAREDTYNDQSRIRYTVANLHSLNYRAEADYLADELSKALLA
BD-Rfa1-FLAB (lexA DNA binding domain fused to Rfa1 truncated at tryptophan 413; plasmid pGP1): residues 1-412 of P22336
UniProt P40562, residues 867-993: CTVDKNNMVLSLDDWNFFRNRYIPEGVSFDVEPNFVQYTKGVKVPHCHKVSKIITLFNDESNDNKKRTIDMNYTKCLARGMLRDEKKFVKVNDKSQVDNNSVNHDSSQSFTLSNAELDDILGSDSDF
UniProt P32599, residues 202-642: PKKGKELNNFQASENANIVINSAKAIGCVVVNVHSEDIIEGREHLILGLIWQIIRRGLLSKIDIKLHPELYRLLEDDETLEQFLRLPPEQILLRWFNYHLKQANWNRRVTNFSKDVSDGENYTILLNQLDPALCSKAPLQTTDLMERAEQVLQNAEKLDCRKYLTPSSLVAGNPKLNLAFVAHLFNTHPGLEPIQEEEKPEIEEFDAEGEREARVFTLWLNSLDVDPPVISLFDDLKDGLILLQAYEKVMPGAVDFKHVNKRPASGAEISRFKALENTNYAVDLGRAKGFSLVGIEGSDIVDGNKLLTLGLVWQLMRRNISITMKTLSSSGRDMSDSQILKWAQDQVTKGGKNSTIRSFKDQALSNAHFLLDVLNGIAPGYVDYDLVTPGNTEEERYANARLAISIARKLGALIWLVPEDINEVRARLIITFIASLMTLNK
UniProt P47110, residues 139-350: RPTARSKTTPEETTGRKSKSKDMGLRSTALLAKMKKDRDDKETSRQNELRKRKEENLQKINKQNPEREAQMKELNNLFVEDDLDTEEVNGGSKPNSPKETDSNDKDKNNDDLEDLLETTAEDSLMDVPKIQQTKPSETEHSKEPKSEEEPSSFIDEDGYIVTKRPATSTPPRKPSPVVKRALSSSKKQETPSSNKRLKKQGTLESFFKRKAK

| Molecule | binding [1] | binding [2] | binding [3] |
| --- | --- | --- | --- |
| Mph1 fragment from the two-hybrid library (fusion junction at aa 867) (from UniProt P40562 867-993) (domain or fragment) | binds |  |  |
| Rfa1 fragment from the two-hybrid library (fusion junction at aa 65) (from UniProt P22336 65-621) (domain or fragment) | binds |  |  |
| Sac6 fragment from the two-hybrid library (fusion junction at aa 202) (from UniProt P32599 202-642) (domain or fragment) | binds |  |  |
| Pol32 fragment from the two-hybrid library (fusion junction at aa 139) (from UniProt P47110 139-350) (domain or fragment) | binds |  |  |
| AD-Rad24, full-length (plasmid pGP17) (protein, UniProt P32641 1-659) MDSTNLNKRPLLQYSLSSLGSQITKWSSSRPTSPVRKARSTENDFLSKQDTSSILPSINDDGGEQWYEKFKPNCLEQVAIHKRKLKDVQEALDAMFLPNAKHRILLLSGPSGCSKSTVIKELSKILVPKYRQNSNGTSFRSTPNEHKVTEFRGDCIVNDLPQMESFSEFLKGARYLVMSNLSLILIEDLPNVFHIDTRRRFQQLILQWLYSSEPLLPPLVICITECEIPENDNNYRKFGIDYTFSAETIMNKEILMHPRLKRIKFNPINSTLLKKHLKFICVQNMKMLKEKNKWNKRQEVIDYIAQETGDIRSAITTLQFWATSSGSLPISTRESTISYFHAIGKVIHGSHSTNNDNEMINNLFENSNNLLSKEDFKLGILENYNTFNKGEFSISDASSIVDCLSECDNMNGLPESNEYGLREVRKTFRNISKQGHNHGTVYFPREWKVRKLQNSFKVQAEDWLNVSLYKYNAVHSFRNITLEFGYYAPLIRKCQSYKKKYILYYLKNLPSGSSGPKQTMDKFSDIMKVENGIDVVDRIGGPIEALSVEDGLAPLMDNDSNNCDHLEDQKKERDRRLRMLIDQYERNVMMANDDLEDEETSFNDDPIVDSDSDNSNNIGNETFGRSDEDESLCEILSQRQPRKAPVISESLSDSDLEIL |  | binds |  |
| Rad24-Δcoil (Rad24 C-terminal peptide with the predicted coil region deleted) (domain or fragment, UniProt P32641) EDWLNVSLYKYNAVHSFRNITLEFGYYAPLIRKCQSYKKKYILYYLKNLPSGSSGPKQTMDKFSDIMKVENGIDVVDRIGGPIEALSVEDGLAPLMDNDSNNCDHLEDQKKERDFNDDPIVDSDSDNSNNIGNETFGRSDEDESLCEILSQRQPRKAPVISESLSDSDLEIL |  |  | binds |
| Rad24 C-terminal peptide rad24-650,652,654SSS→AAA (domain or fragment, UniProt P32641 461-659) EDWLNVSLYKYNAVHSFRNITLEFGYYAPLIRKCQSYKKKYILYYLKNLPSGSSGPKQTMDKFSDIMKVENGIDVVDRIGGPIEALSVEDGLAPLMDNDSNNCDHLEDQKKERDRRLRMLIDQYERNVMMANDDLEDEETSFNDDPIVDSDSDNSNNIGNETFGRSDEDESLCEILSQRQPRKAPVISEALADADLEIL |  | binds |  |
| Rad24 C-terminal peptide 593,594DD→AA (domain or fragment, UniProt P32641 461-659) EDWLNVSLYKYNAVHSFRNITLEFGYYAPLIRKCQSYKKKYILYYLKNLPSGSSGPKQTMDKFSDIMKVENGIDVVDRIGGPIEALSVEDGLAPLMDNDSNNCDHLEDQKKERDRRLRMLIDQYERNVMMANAALEDEETSFNDDPIVDSDSDNSNNIGNETFGRSDEDESLCEILSQRQPRKAPVISESLSDSDLEIL |  |  | binds |
| Rad24 C-terminal peptide rad24-S637D (domain or fragment, UniProt P32641 461-659) EDWLNVSLYKYNAVHSFRNITLEFGYYAPLIRKCQSYKKKYILYYLKNLPSGSSGPKQTMDKFSDIMKVENGIDVVDRIGGPIEALSVEDGLAPLMDNDSNNCDHLEDQKKERDRRLRMLIDQYERNVMMANDDLEDEETSFNDDPIVDSDSDNSNNIGNETFGRSDEDESLCEILDQRQPRKAPVISESLSDSDLEIL |  | binds |  |

Second part, the molecule after the results:

| binding [1] | binding [2] | binding [3] | Molecule |
| --- | --- | --- | --- |
| binds |  |  | Dna2 fragment from the two-hybrid library (fusion junction at aa 122) (domain or fragment, UniProt P38859 122-1522) PMEEVIWKYSPLQRDMSDKTTSAAEYSDDYEDVQNPSSTPIVPNRLKTVLSFTNIQVPNADVNQLIQENGNEQVRPKPAEISTRESLRNIDDILDDIEGDLTIKPTITKFSDLPSSPIKAPNVEKKAEVNAEEVDKMDSTGDSNDGDDSLIDILTQKYVEKRKSESQITIQGNTNQKSGAQESCGKNDNTKSRGEIEDHENVDNQAKTGNAFYENEEDSNCQRIKKNEKIEYNSSDEFSDDSLIELLNETQTQVEPNTIEQDLDKVEKMVSDDLRIATDSTLSAYALRAKSGAPRDGVVRLVIVSLRSVELPKIGTQKILECIDGKGEQSSVVVRHPWVYLEFEVGDVIHIIEGKNIENKRLLSDDKNPKTQLANDNLLVLNPDVLFSATSVGSSVGCLRRSILQMQFQDPRGEPSLVMTLGNIVHELLQDSIKYKLSHNKISMEIIIQKLDSLLETYSFSIIICNEEIQYVKELVMKEHAENILYFVNKFVSKSNYGCYTSISGTRRTQPISISNVIDIEENIWSPIYGLKGFLDATVEANVENNKKHIVPLEVKTGKSRSVSYEVQGLIYTLLLNDRYEIPIEFFLLYFTRDKNMTKFPSVLHSIKHILMSRNRMSMNFKHQLQEVFGQAQSRFELPPLLRDSSCDSCFIKESCMVLNKLLEDGTPEESGLVEGEFEILTNHLSQNLANYKEFFTKYNDLITKEESSITCVNKELFLLDGSTRESRSGRCLSGLVVSEVVEHEKTEGAYIYCFSRRRNDNNSQSMLSSQIAANDFVIISDEEGHFCLCQGRVQFINPAKIGISVKRKLLNNRLLDKEKGVTTIQSVVESELEQSSLIATQNLVTYRIDKNDIQQSLSLARFNLLSLFLPAVSPGVDIVDERSKLCRKTKRSDGGNEILRSLLVDNRAPKFRDANDDPVIPYKLSKDTTLNLNQKEAIDKVMRAEDYALILGMPGTGKTTVIAEIIKILVSEGKRVLLTSYTHSAVDNILIKLRNTNISIMRLGMKHKVHPDTQKYVPNYASVKSYNDYLSKINSTSVVATTCLGINDILFTLNEKDFDYVILDEASQISMPVALGPLRYGNRFIMVGDHYQLPPLVKNDAARLGGLEESLFKTFCEKHPESVAELTLQYRMCGDIVTLSNFLIYDNKLKCGNNEVFAQSLELPMPEALSRYRNESANSKQWLEDILEPTRKVVFLNYDNCPDIIEQSEKDNITNHGEAELTLQCVEGMLLSGVPCEDIGVMTLYRAQLRLLKKIFNKNVYDGLEILTADQFQGRDKKCIIISMVRRNSQLNGGALLKELRRVNVAMTRAKSKLIIIGSKSTIGSVPEIKSFVNLLEERNWVYTMCKDALYKYKFPDRSNAIDEARKGCGKRTGAKPITSKSKFVSDKPIIKEILQEYES |
| binds |  |  | Ptc1 fragment from the two-hybrid library (fusion junction at aa 185) (domain or fragment, UniProt P35182 185-281) LIMKSRVNGMLAVTRSLGDKFFDSLVVGSPFTTSVEITSEDKFLILACDGLWDVIDDQDACELIKDITEPNEAAKVLVRYALENGTTDNVTVMVVFL |
| binds |  |  | Mcm5 fragment from the two-hybrid library (fusion junction at aa 108) (domain or fragment, UniProt P29496 108-775) QSANNNDKDPENTSMDTDSLLLNSLPTFQLILNSNANQIPLRDLDSEHVSKIVRLSGIIISTSVLSSRATYLSIMCRNCRHTTSITINNFNSITGNTVSLPRSCLSTIESESSMANESNIGDESTKKNCGPDPYIIIHESSKFIDQQFLKLQEIPELVPVGEMPRNLTMTCDRYLTNKVIPGTRVTIVGIYSIYNSKNGAGSGRSGGGNGGSGVAIRTPYIKILGIQSDVETSSIWNSVTMFTEEEEEEFLQLSRNPKLYEILTNSIAPSIFGNEDIKKAIVCLLMGGSKKILPDGMRLRGDINVLLLGDPGTAKSQLLKFVEKVSPIAVYTSGKGSSAAGLTASVQRDPMTREFYLEGGAMVLADGGVVCIDEFDKMRDEDRVAIHEAMEQQTISIAKAGITTVLNSRTSVLAAANPIYGRYDDLKSPGDNIDFQTTILSRFDMIFIVKDDHNEERDISIANHVINIHTGNANAMQNQQEENGSEISIEKMKRYITYCRLKCAPRLSPQAAEKLSSNFVTIRKQLLINELESTERSSIPITIRQLEAIIRITESLAKLELSPIAQERHVDEAIRLFQASTMDAASQDPIGGLNQASGTSLSEIRRFEQELKRRLPIGWSTSYQTLRREFVDTHRFSQLALDKALYALEKHETIQLRHQGQNIYRSGV |
|  | binds |  | Rad24 C-terminal peptide rad24-650,652,654SSS→DDD (domain or fragment, UniProt P32641 461-659) EDWLNVSLYKYNAVHSFRNITLEFGYYAPLIRKCQSYKKKYILYYLKNLPSGSSGPKQTMDKFSDIMKVENGIDVVDRIGGPIEALSVEDGLAPLMDNDSNNCDHLEDQKKERDRRLRMLIDQYERNVMMANDDLEDEETSFNDDPIVDSDSDNSNNIGNETFGRSDEDESLCEILSQRQPRKAPVISEDLDDDDLEIL |
|  |  | binds | Rad24 C-terminal peptide 598,599EE→AA (domain or fragment, UniProt P32641 461-659) EDWLNVSLYKYNAVHSFRNITLEFGYYAPLIRKCQSYKKKYILYYLKNLPSGSSGPKQTMDKFSDIMKVENGIDVVDRIGGPIEALSVEDGLAPLMDNDSNNCDHLEDQKKERDRRLRMLIDQYERNVMMANDDLEDAATSFNDDPIVDSDSDNSNNIGNETFGRSDEDESLCEILSQRQPRKAPVISESLSDSDLEIL |
|  | binds |  | Rad24 C-terminal peptide rad24-S637A (domain or fragment, UniProt P32641 461-659) EDWLNVSLYKYNAVHSFRNITLEFGYYAPLIRKCQSYKKKYILYYLKNLPSGSSGPKQTMDKFSDIMKVENGIDVVDRIGGPIEALSVEDGLAPLMDNDSNNCDHLEDQKKERDRRLRMLIDQYERNVMMANDDLEDEETSFNDDPIVDSDSDNSNNIGNETFGRSDEDESLCEILAQRQPRKAPVISESLSDSDLEIL |
| binds |  | binds | Sgs1 peptide containing central amino acids 421-792 (plasmid pGP3) (domain or fragment, UniProt P35187 421-792) YMTTRDEEKEENELLNQSDFDFVVNDDLDPTQDTDYHDNMDVSANIQESSQEGDTRSTITLSQNKNVQVILSSPTAQSVPSNGQNQIGVEHIDLLEDDLEKDAILDDSMSFSFGRQHMPMSHSDLELIDSEKENEDFEEDNNNNGIEYLSDSDLERFDEERENRTQVADIQELDNDLKIITERKLTGDNEHPPPSWSPKIKREKSSVSQKDEEDDFDDDFSLSDIVSKSNLSSKTNGPTYPWSDEVLYRLHEVFKLPGFRPNQLEAVNATLQGKDVFVLMPTGGGKSLCYQLPAVVKSGKTHGTTIVISPLISLMQDQVEHLLNKNIKASMFSSRGTAEQRRQTFNLFINGLLDLVYISPEMISASEQCKRA |
